Experimental data taken from ChEMBL document CHEMBL4888484, “Replenishing the malaria drug discovery pipeline: Screening and hit evaluation of the MMV Hit Generation Library 1 (HGL1) against asexual blood stage Plasmodium falciparum ,using a nano luciferase reporter read-out” (2022).
Among all 150,000 compounds or so, about 540 (0.36%) showed an effect of 50% or more. Some of the results follow.

Test system: Plasmodium falciparum
Test: Primary screen in NF54 nanoGlo assay, in single point, at 2uM, 72h; a lower Z score goes with more inhibition
Type: functional, Erythrocyte
Settings: timepoint 72 hour

Row | Structure (SMILES) | % Inhibition | Z score
1 | COc1ccccc1CCN(C)C(=O)NCc1ccsc1 | 8% | -1.16
2 | CCc1noc(C)c1C(=O)N1CCc2cc(S(=O)(=O)N(CC)CC)ccc21 | 4% | -0.54
3 | C[C@H]1CCCN(S(=O)(=O)NCCCN2CCCC2=O)C1 | -3% | 0.44
4 | COCc1cc(=O)c2c(=O)n(-c3ccccc3)[nH]c2[nH]1 | 1% | -0.24
5 | COc1ccc(C2CN(C(=O)c3ccccc3F)CC2C(=O)N2CCN(c3ccccc3C)CC2)cc1 (stereo unspecified) | -5% | 0.72
6 | CC(CN[C@@H]1C=C[C@H](CO)C1)c1ccccc1 (stereo partly specified) | -6% | 0.88
7 | CCOc1ccnc(NCCN2CCC(O)CC2)n1 | -12% | 1.34
8 | COCCS(=O)(=O)[C@@H](C)C(=O)N(C)C1CCCCC1 | -4% | 0.41
9 | CCOc1cc(N2CCOCC2)c(OCC)cc1NC(=O)c1ccoc1 | -4% | 0.57
10 | O=C1c2cccc3cccc(c23)C(=O)N1C1CCCCC1 | -3% | 0.61
11 | COCCOCCS(=O)(=O)Nc1ccccc1C=CCO | -8% | 0.99
12 | CCn1ncnc1CN1C[C@H](NC(=O)C2CCCCC2)[C@@H](C2CC2)C1 | -3% | 0.45
13 | CCNc1cc(F)ccc1C(=O)N[C@@H](C)C(=O)OC | -11% | 1.36
14 | Cc1ccc([C@H](C)NC(=O)c2ncccc2O)s1 | -5% | 0.47
15 | CCn1c(=O)c([C@@H]2C(=O)Nc3ccccc32)nc2ccccc21 | -7% | 1.04
16 | C[C@@]1(C(=O)NC2CCCCCCC2)Cn2c(cc3ccccc32)C(=O)N1CCN1CCOCC1 | 5% | -0.73
17 | COc1nccc(C(=O)N2CCC[C@@H]3CCCC[C@@H]32)n1 | -9% | 1.67
18 | COc1c(C)cc(C(=O)[C@H]2CCCN(C(=O)CCc3c(C)nn(C)c3C)C2)cc1C | -15% | 2.18
19 | CN1CCN(Cc2cnn(C)c2)C[C@@]12CCC(=O)N(CC1CC1)CC2 | 12% | -1.63
20 | O=S1(=O)CCN(CCc2ccccn2)CC1 | -9% | 1.14
21 | Fc1cccc(-c2nc(C3CC3)ncc2-c2nnnn2-c2ccc(Cl)cc2)c1 | -6% | 0.84
22 | O=C(NC1CC1)[C@@H]1CCCN1CCOc1cc(Cl)ccc1Cl | -10% | 1.6
23 | CN(c1ccc(C(=O)NCc2ccco2)c(Cl)c1)S(C)(=O)=O | 10% | -1.33
24 | O=C(Nc1ccncc1)N[C@H]1CC(=O)N(c2ccc3c(c2)OCCO3)C1 | -14% | 2.62
25 | COc1cc(OC)cc(C(=O)N2CCN(Cn3ncsc3=S)CC2)c1 | 0% | 0.04
26 | O=C1NCCCC[C@@H]1Cc1nc(-c2cnc3ccccn23)no1 | -13% | 1.51
27 | Cc1cc(O)cc(=O)n1CCc1nnc2ccccn12 | -9% | 1.18

Row | Structure (SMILES) | % Inhibition | Z score
28 | CCOc1cc(-c2nnc(NC(=O)c3cccc4ccccc34)o2)cc(OCC)c1OCC | 12% | -1.61
29 | Cn1cc(-c2ccc(C(=O)N3CCOCC3)o2)cn1 | -10% | 1.78
30 | Cc1cc([C@@H]2CCCCN2Cc2nc3ccccc3[nH]2)no1 | 4% | -0.56
31 | O=C(CO[C@H](c1ccccc1)C(F)(F)F)N1CCCNCC1 | -14% | 1.74
32 | CC1CN(C(CN=C(N)Nc2ccccn2)c2cccs2)CCO1 (stereo unspecified) | -2% | 0.35
33 | O=C(C[C@@H]1CCN2C[C@@H]1/C=C\COc1ccccc1CN(C(=O)C1CCC1)CC2=O)N1CCOCC1 | 2% | -0.27
34 | CCN1CC(=O)N[C@H]2CN(C(=O)c3cn[nH]c3)CC[C@@H]2OCc2cccc(c2)Oc2cc(OC(C)C)cc(c2)C1=O | -12% | 2.48
35 | Cc1cc(C)c(C#N)c(-c2ccc(C(=O)N3CCC(N)CC3)cc2)n1 | 6% | -1.13
36 | COc1cc(CN2C[C@@H](CO)[C@H](C(=O)NC3CC3)C2)ccc1F | -5% | 0.72
37 | CC(C)N(C(C)C)S(=O)(=O)c1ccc(O)nc1 | -19% | 2.4
38 | Cc1cc(C)c(C(=O)N[C@@H]2CCC[C@@H]2Oc2cn[nH]c2)s1 | -6% | 0.98
39 | COc1cc(C(=O)Nc2c(C(=O)N3CCOCC3)oc3ccccc23)ccc1OC(F)F | -7% | 0.81
40 | Cc1ccc(-c2nc(CCNC(=O)c3ccc(S(=O)(=O)N4CCOCC4)cc3)n[nH]2)cc1 | -17% | 3.25
41 | Cc1ccc(NC(=O)Nc2ccc3nc4n(c(=O)c3c2)CCCC4)c(C)c1 | 5% | -0.58
42 | O=C1NC[C@@]2(CCCN(C(=O)Cc3ccc(Cl)c(Cl)c3)C2)O1 | 2% | -0.43
43 | CCN1CCC(Nc2ccc(-c3cc[nH]n3)cc2)CC1 | -8% | 1.6
44 | C[C@@H](Cn1cncn1)NC(=O)CN1CCOc2ccc(Cl)cc21 | -10% | 1.49
45 | C[C@@H](C(=O)N1CCOCC1)N1CCN(c2ncccc2F)CC1 | -6% | 0.56
46 | CCC(C(=O)N1CCN(C2=Nc3ccccc3Oc3c(OC)cccc32)CC1C)c1ccccc1 (stereo unspecified) | -13% | 1.18
47 | CCOc1ncccc1C(=O)NC[C@@H](c1ccco1)N1CCCC1 | 10% | -1.95
48 | CC[C@]1(N2CCN(C(=O)c3ccc(F)c(Cl)c3)CC2)CCN(S(C)(=O)=O)C1 | 12% | -1.21
49 | O=C(Nc1ccncc1)NC1CCOC1c1ccc(Cl)cc1 (stereo unspecified) | -2% | 0.41
50 | COc1ccc(CCn2nc(C(=O)N(C)C)c3c2CCN(C(=O)c2[nH]nc4c2CCCC4)C3)cc1 | -10% | 1.34
51 | CC[C@@H](CO)N(Cc1ccccc1C)Cc1[nH]cnc1C | 0% | 0.06
52 | Cc1cn2nc(C(=O)NCCc3ccc(S(N)(=O)=O)cc3)cc2c(=O)[nH]1 | -18% | 3.38
53 | Cc1nc(N)nc(C)c1CC(=O)N1CC[C@](C)(O)[C@H](C)C1 | -7% | 1.27
